# Measurements as given in PMC12136788.
# This is one part of the list.
# T1: UNK ZnF1-3 (human, UniProt Q9C0B0 31-174)
# T1 sequence: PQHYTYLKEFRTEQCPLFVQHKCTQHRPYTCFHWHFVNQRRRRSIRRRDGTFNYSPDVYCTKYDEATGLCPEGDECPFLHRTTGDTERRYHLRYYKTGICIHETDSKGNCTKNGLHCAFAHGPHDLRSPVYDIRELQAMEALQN
# B1: chr12:90018129:90018130:-_ENSG00000070961_ENST00000261173|hu_hu|motif|central (ssRNA)
# RNA: GGGAGUUCUACAGUCCGACGAUCCUCAGCAAGCCAUGGUCUUUUCUGAACCCAGAAGGUGUCAAUGACAAAAUAUAAUACGGGAAUGAUAACUGUGAUGGCAGACAUCAACAGACCUGCUUUGCCAAUCUGAACAGCCAGUUUCAACAGAGGAUUGAGCAUCA
# B2: chr1:220273833:220273834:+_ENSG00000067704_ENST00000302637|hu_hu|motif|central (ssRNA)
# RNA: GGGAGUUCUACAGUCCGACGAUCAUCCCAGCCGGGCACAAAAUGUAUUUUGGAGCCAUUCAUCAUAUGGAAUCGAUUGGCGGUGUCUUUCAAAAUCUUAUUUAAAGCAUGUCCAACAUGAGGGUCACCGUUUGCAUAAGGAGGCAACAGAGGAUUGAGCAUCA
# B3: 37179728_37179848_3142_CDS_ENSG00000170471_ENST00000397040|human|control|control (ssRNA)
# RNA: GGGAGUUCUACAGUCCGACGAUCAUGCAAAUCUGGAAUGCUGAGAUCUGCUUUCACAAAAGGAAUCUUGUCCACCUCUUCAGGAAAUGGCCGAUGUUUCACAGAAUAUUUAAAUCCAACGUCAUUUUUAGGAACUGGGCGAGGCAACAGAGGAUUGAGCAUCA
# B4: chr11:69468634:69468635:+_ENSG00000110092_ENST00000227507|hu_hu|motif|central (ssRNA)
# RNA: GGGAGUUCUACAGUCCGACGAUCCAGAACACUAGUACAUAACAGAUUAAACAUACCCAAAACUUGAACAAAUUCCAGAAGCGGUUCCAAUCAUCCCGAAUGAGAGUCCUACAGGUACAACGCCGUGGUGGCACGUAAGACACACAACAGAGGAUUGAGCAUCA
# B5: chr17:64801638:64801639:+_ENSG00000154229_ENST00000413366|hu_mus|hu_hu_hu_mus_False|38_58 (ssRNA)
# RNA: GGGAGUUCUACAGUCCGACGAUCUAUAUAUAUAUAUACAUAUGUACACAUAUAUAGUAAAACCCUAGUUAAACGUGUAAACUAGCCAUUCAUUUUUGAAAUUUUAUCUACAUUAAAAAAUUAAUAUAUCUGAUAGAGUGCCAGCAACAGAGGAUUGAGCAUCA
# B6: chr19:53463844:53463845:-_ENSMUSG00000025024_ENSMUST00000025997|mus_hu|FALSE|FALSE (ssRNA)
# RNA: GGGAGUUCUACAGUCCGACGAUCUCAUUUUCUCCAUUUCCAGAUAAUGCAGCUUCAACUUGCUGGAGCUGAGCUUUGUAGCUUGCCAGCUGCUUUGCUAAAUCCUCUGACAUCUCAAAGCCCGCCACAACUCGAUCAUUCGGACAACAGAGGAUUGAGCAUCA
# B7: chr2:130329849:130329850:+_ENSMUSG00000027303_ENSMUST00000028769|mus_hu|FALSE|FALSE (ssRNA)
# RNA: GGGAGUUCUACAGUCCGACGAUCGUCUGAAGAAUUGACAGUGGUUAAAUAGGUGGGUCCCAGAGUUAUAUUUGGGCUGAAUGUUGGUGCCACAGAAAGAGAAGUUAGUGAAGAAGUUGGAUUUGAAGUUUUGGCCUCUUCUUUCAACAGAGGAUUGAGCAUCA
# B8: chr4:98674826:98674827:-_ENSMUSG00000028556_ENSMUST00000030286|mus_hu|FALSE|FALSE (ssRNA)
# RNA: GGGAGUUCUACAGUCCGACGAUCGAUUCGCAUGUCCCCAAUUCGGACUGGGAACAGGUGUUCAUCCAGAGCAUUGACCAGAGCAAAAAAUUUGUCAAGAUAAGGAUCUUGUGUAUGGAUAGACGAAACAGCAACAACUUCAACCAACAGAGGAUUGAGCAUCA
# B9: chr1:150203005:150203006:-_ENSG00000143401_ENST00000314136|hu_hu|FALSE|FALSE (ssRNA)
# RNA: GGGAGUUCUACAGUCCGACGAUCAAGAUUUGGACAUUUCUCUGCCAGGACUUCCAAGCCUCCAGAAAUUAUAUUAUCACUAAGCUCCAAUUUUCGAAGUUUAUUUAAGCUGGGAAGCCGGGCCAGCGAACUUAGUUCCACAUUCAACAGAGGAUUGAGCAUCA
# B10: 32463084_32463204_1817_3pUTR_ENSMUSG00000027668_ENSMUST00000091257|mouse|control|control (ssRNA)
# RNA: GGGAGUUCUACAGUCCGACGAUCCGAGCAGCACCCUCUGUGCAUUUGUGGAACCCAGGAAUCGAUGUACAAGGGAAGACCAGCCCAGGGAAAACCGAAACACAAUGUCCUCUUGAAAAUCCGAACACAGCUUGUGGCAAUUGACAACAGAGGAUUGAGCAUCA
# B11: chrX:98510588:98510589:+_ENSMUSG00000031302_ENSMUST00000065858|mus_mus|FALSE|FALSE (ssRNA)
# RNA: GGGAGUUCUACAGUCCGACGAUCAUGAGACAGUGUAAGGAGACUGACACAGGAUGCACCGAUGCCAGAGCCAAAGACAGUAAUUCUACGGGGAUCUCCUCCAAAGAAGGCAAUAUUCUCACUCACCCAGCGAAGGGCCUGGAUCAACAGAGGAUUGAGCAUCA
# B12: chr11:77843920:77843921:+_ENSMUSG00000037791_ENSMUST00000049167|mus_mus|FALSE|FALSE (ssRNA)
# RNA: GGGAGUUCUACAGUCCGACGAUCGUUUUUAUAUACAGAAUACAGGAAAGUUUCUGUCAAGUCUAAAACAUUACAAUUACUAUGUACAUUGGUUGUGGGGAAGAGGAAGUAUCUGGGGUGAGGAGGAAGAGAAGUGGUAAGAACCAACAGAGGAUUGAGCAUCA
# B13: chr1:220276048:220276049:+_ENSG00000067704_ENST00000302637|hu_hu|hu_hu_hu_mus_True|78_78 (ssRNA)
# RNA: GGGAGUUCUACAGUCCGACGAUCGCAAAUUGCCUGGUUGGCGGGAAUUGUCCAAGGUUGUGUGGUCCAAACUAAAACGCUAACAGGGGAUGAGGCAUCUGUAAGAGACUCCAACUUCGGAGGAGGUCUCAGGAGGGGGAAUCUCAACAGAGGAUUGAGCAUCA
# B14: chr2:198351390:198351391:-_ENSG00000144381_ENST00000345042|hu_hu|hu_hu_hu_mus_False|58_78 (ssRNA)
# RNA: GGGAGUUCUACAGUCCGACGAUCUCAUUCCCACCCUCCACAGAAAGGCUGCUUCUGUUCUCAUCUGUGGUGACACAGCACUAAAAUCCUGAUGCUCACAGAACAGUAGAGAUGCCUCAGUGAUUUAAGUUGAAAGCAGGACACCAACAGAGGAUUGAGCAUCA
# B15: chr5:132270174:132270175:-_ENSG00000072364_ENST00000265343|hu_mus|motif|central (ssRNA)
# RNA: GGGAGUUCUACAGUCCGACGAUCAGAAUCCCAGUUGGCAUCAGGGUCCCGAGGUGAUUUGGAGCGCUGAUGUUCCUUGCGGUGGUGAUCAUUCCCAUGAGACCUGGAAUGACUAGAACUUAAUGAAGAAACAGCCUGGGGUUUCAACAGAGGAUUGAGCAUCA
# B16: chr7:118225073:118225074:-_ENSMUSG00000005610_ENSMUST00000162415|mus_mus|FALSE|FALSE (ssRNA)
# RNA: GGGAGUUCUACAGUCCGACGAUCGCACUGAAACGAGAAGCACCCCCUUCUGCAAUCGCACUCUCCACUUUGGCGGCUUGACAACGAAGAAUCUUCAAAAGAAUAAUAUUAAUGGAUGGGGUGGGGAGGGGAGGGGAUGGUAGACAACAGAGGAUUGAGCAUCA
# B17: chr2:152658766:152658767:-_ENSG00000162980_ENST00000295087|hu_mus|FALSE|FALSE (ssRNA)
# RNA: GGGAGUUCUACAGUCCGACGAUCAUUCUUAAAUUCAUUUUAACUGUUUGUCAUGUAAUUUAAUACCUAAAAAGGUUGCAGCUAAAUUAAUUACUACUAUUUAUAGGAUGUUACCUCUUUGGGUAGAUAUAUUUCACACCAUGACAACAGAGGAUUGAGCAUCA
# B18: chr9:58050066:58050067:-_ENSMUSG00000051243_ENSMUST00000163897|mus_mus|motif|central (ssRNA)
# RNA: GGGAGUUCUACAGUCCGACGAUCGGGACCUGCUGAACUGCGCUGCCUGGCUCUCCCGGACCCUUUUCCUCCUGCCGCCUGCGGGCCUCCCCCUCCCCGAAGCUUCGUUCAACACGAUGCAUAAUUGAUAGUGUUAGCAGAACGCAACAGAGGAUUGAGCAUCA
# B19: chr3:148802587:148802588:-_ENSG00000071794_ENST00000310053|hu_mus|hu_hu_hu_mus_False|1_48 (ssRNA)
# RNA: GGGAGUUCUACAGUCCGACGAUCUCCAACAACUUGUCCUCUCAUAGUUCCAAAUAAAACCAAAUCUUGCUCUUCAUCACUCGUUAGAAAGUCAUCUGGAGGAAUAAUGUCUUGGAAUUCAAAAUGUGGCAAGAAAGUUGGAUACAACAGAGGAUUGAGCAUCA
# B20: chr7:91030085:91030086:-_ENSMUSG00000070462_ENSMUST00000094216|mus_mus|FALSE|FALSE (ssRNA)
# RNA: GGGAGUUCUACAGUCCGACGAUCAAUACUCCAGUACAUGCAGGGUAAAAACUUGACAUUGGGGGGGGGGGGAAAUCACUCUAUAGUGUAAUUUAAAAAAUAAAACACACGCUCACAGUAGCUUUCCCCCCCACUUGCAAAUCACAACAGAGGAUUGAGCAUCA
# B21: chrX:71549400:71549401:+_ENSMUSG00000019087_ENSMUST00000019231|mus_hu|FALSE|FALSE (ssRNA)
# RNA: GGGAGUUCUACAGUCCGACGAUCGCAGUAGGAAGAGGGAAGCUCUUCAGUCCAGUGCGCUGCAGGGUGGGAAAGCAACAACACGGACACCGUCCCACCCUCAACCCCCCCACUGGCACAGGGUCACACAAUCUGGGUCAAAGACAACAGAGGAUUGAGCAUCA
# B22: 17197765_17197885_133_5pUTR_ENSMUSG00000017485_ENSMUST00000017629|mouse|control|control (ssRNA)
# RNA: GGGAGUUCUACAGUCCGACGAUCAUGAGCCGCUGCUUCUCCUCAAGCCACCGAAGCCGCAGAGUCCUCGCCGCGGUCGCCGCAGCCUCAAAGGCCGCCACUGCCUCAAAACCGCCCAAGCGGCGUCUGAACCGGUCCUCCGGACAACAGAGGAUUGAGCAUCA
# Target: T1, UNK ZnF1-3
# Test: nsRBNS (natural sequence RNA bind-n-seq); RBNS binding buffer (assumed for nsRBNS): 25 mM Tris pH 7.5, 150 mM KCl, 3 mM MgCl2, 0.01% Triton X-100, 500 ug/ml BSA, 20 U/ml SUPERase-In, 4 C; UNK is unkempt and MSI1 is Musashi-1; names of the RNAs are library labels; protein concentration not given here; high values mean tight binding
row,Binder,binding signal [enrichment R]
1,B1,1.49
2,B2,1.82
3,B3,0.925
4,B4,2.11
5,B5,1.17
6,B6,0.661
7,B7,1.49
8,B8,1.33
9,B9,0.675
10,B10,1.46
11,B11,1.21
12,B12,1.58
13,B13,1.73
14,B14,1.22
15,B15,1.05
16,B16,2.8
17,B17,0.748
18,B18,1.07
19,B19,0.931
20,B20,0.864
21,B21,1.65
22,B22,1.01
